The experiment deals with 422866-222-R5-J1-PDC complex spheroid viability. Kind of experiment: Anticancer human tumor 422866-222-R5-J1-PDC patient-derived pancreatic adenocarcinoma cell line growth inhibition [POLQ]. The conditions noted are these: for viability, T/C: stronger effect = lower value. Here is the method: Multicellular complex tumor spheroid response to Polymerase (POL) inhibitors (novobiocin, ART-558, RP6685) in combination with a variety of drugs and investigational agents in selected tumor cell lines
The POL inhibitors (novobiocin, ART-558, and RP6685) were evaluated both individually and in combination with standard of care and investigational anticancer small molecules within a complex spheroid model of solid tumors. . Complex spheroids include a stromal component modeled by human endothelial cells (HUVEC) and fibroblasts modeled by human mesenchymal stem cells (MSCs). The concentration ranges selected for each drug and investigational agent were based upon clinically achievable concentrations if the clinical Cmax of the agent was known.
Compounds. The drugs and investigational agents: novobiocin (NSC847541), ART-558 (NSC835418), RP-6685 (NSC848927), peposertib (NSC802822), ceralasertib (NSC780249), elimusertib (NSC800525), camonsertib (NSC841442), AZD-1390 (NSC803789), olaparib (NSC753686), talazoparib (NSC767125), rucaparib (NSC756644), sotorasib (NSC818433), MRTX-1133 (NSC836407), SN-38 (NSC673596), topotecan (NSC609699), epotoside (NSC141540), doxorubicin (NSC123127), gemcitabine (NSC613327), 5-fluorouracil (NSC19893), paclitaxel (NSC125973), vemurafenib (NSC761431), MSA-2 (NSC828583), SN-011 (NSC837082), adavosertib (NSC754352), prexasertib (NSC758257), carboplatin (NSC241240) and oxaliplatin (NSC266046), were obtained from the National Cancer Institute (NCI) Developmental Therapeutics Program Chemical Repository (21). The FDA-approved anticancer drug set is available from the Developmental Therapeutics Program at https://dtp.cancer.gov/organization/dscb/obtaining/. […] The stock solutions were prepared in dimethyl sulfoxide (DMSO, Sigma-Aldrich, St. Louis, MO, cat. D2650), except for the platinum compounds which were prepared in saline (Quality Biological, Gaithersburg, MD, cat. 114-055-101), at 800-fold the tested concentration and stored at -70 degrees C prior to their use. All drugs and investigational agents were tested over a range starting from a high concentration at or near the clinical Cmax and decreasing in half-log increments. If the clinical Cmax for an agent had not been determined, the highest concentration tested was 10 microM, except for SN-38, which was tested at a high concentration of 1 microM.
Cell Culture. All cells were maintained in an incubator at 37 degrees C and 5% CO2 with 95% humidity. The PDC lines were cultured according to standard operating procedures established by the NCI PDMR (https://pdmr.cancer.gov). Table 3 of the manuscript, lists the cell lines along with the number of the three cell types plated to form the mct-spheroids and media for tumor cell growth. After thawing, all PDC lines, except 997537-175-T-J1-PDC and 415267-285-R-J2-PDC, were cultured in Matrigel-coated flasks prepared with a working solution of 1X Ham's F-12 nutrient mix, without supplementation (Thermo Fisher Scientific, cat. 11765054), 100 U/mL penicillin-streptomycin (Thermo Fisher Scientific, cat. 15140122), and 2.5% Matrigel (Corning Inc., Corning, NY, cat. 354248) for the first three passages. The two PDC lines 997537-175-T-J1-PDC and 415267-285-R-J2-PDC were cultured on uncoated flasks. The 857933-349-R-J2-PDC line was cultured in 6C/Colon 1B media containing advanced DMEM/F-12 (Thermo Fisher Scientific, cat. 12634028), 10 mM HEPES (Thermo Fisher Scientific, cat. 15630080), 1X GlutaMAX supplement (Thermo Fisher Scientific, cat. 35050061), 0.1 mg/mL primocin (InvivoGen, San Diego, CA, cat. ant-pm-2), 10% defined fetal bovine serum, heat inactivated (HyClone Laboratories Inc., Logan, UT, cat. SH30070.03HI), 50% L-WRN conditioned media (ATCC, cat. CRL-3276), 1.25 mM N-Acetyl-L-cysteine (Sigma-Aldrich, cat. A9165), 10 mM nicotinamide (Sigma-Aldrich, cat. N0636), 1X B-27 supplement (Thermo Fisher Scientific, cat. 17504044), 1X N-2 supplement (Thermo Fisher Scientific, cat. […]

The source holds more than one record for some entries. They are shown here; other results are not. The source may hold further records. Results that share an entry are repeats across runs, samples, wells, individuals or studies. Additions like (4×) give the number of equal values in this list. A date in brackets names the month of the test. A value given as a limit tells only on which side of the number the result lay.
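Note: spheroids exposed to compounds for one week before readout.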
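Throughout, for viability, T/C: percent of DMSO vehicle wells luminescence so 100% = untreated viability.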

In the case of `Cc1cccc(N(C)C(=O)C2C(O)CCN2c2nc(C)cc(C(F)(F)F)c2C#N)c1` (stereo unspecified), the viability, T/C reads like this: (compound alone 0.0316 µM) 108, 89.4, 99.4, 80, 85.8, 95.4, 107, 96.1% [2023-11] and 89.3, 88.1, 85.6, 95.6, 81.9% [2023-12]; (compound alone 1 µM) 97.9, 86.6, 102, 87.9, 96, 103, 101, 110% [2023-11] and 95.5, 84.9, 102, 89.8, 95.4% [2023-12]; (compound alone 3.16 µM) 104 (2×), 97.8, 87.8, 92.1, 110, 92, 101% [2023-11] and 104, 106, 99.3, 101, 116% [2023-12].

As for `CCc1cc2c(N3CCc4c(cc(Cn5ccnc5)cc4-c4cn(C)nc4C(F)(F)F)C3=O)cc(C)nc2c(OC)n1`, the viability, T/C (compound alone 3.16 µM) is 143% [2023-11] and 95.4%, 97.2% [2023-12].

For the compound `COc1cccc2c1C(=O)c1c(O)c3c(c(O)c1C2=O)CC(O)(C(=O)CO)CC3OC1CC(N)C(O)C(C)O1` (stereo unspecified), the viability, T/C (compound alone 0.1 µM) is 95.8%, 50.8% [2023-11] and 46.8% [2023-12].

On to `COc1cc2cc(C(=O)CCC(=O)O)sc2cc1OC`, for which the viability, T/C is 96.7% [2023-11] and 120%, 90.1% [2023-12] (compound alone 1 µM); 115% [2023-11] and 117%, 88.9% [2023-12] (compound alone 10 µM).

On to `Nc1ccc(C#CCN(C(=O)Cc2ncc(C(F)(F)F)cc2C(F)(F)F)c2ccc(F)cc2)nn1`, for which, under “compound alone 0.316 µM”, the viability, T/C is on record as 84.5, 101, 90.2, 91.5, 111, 102, 88.7, 109, 110, 89.9, 86.9, 94.3, 103%.

Turning to `CNCc1ccc(-c2[nH]c3cc(F)cc4c3c2CCNC4=O)cc1`, the viability, T/C (compound alone 0.316 µM) was 101%, 74.8% [2023-11] and 99% [2023-12].

Regarding `CCCS(=O)(=O)Nc1ccc(F)c(C(=O)c2c[nH]c3ncc(-c4ccc(Cl)cc4)cc23)c1F`, the viability, T/C (compound alone 10 µM) was 92.6% [2023-11] and 97.1%, 121% [2023-12].

For `CC(C)n1c(=O)n(C)c2cnc3cc(F)c(-c4ccc(OCCCN5CCCCC5)nc4)cc3c21`, the viability, T/C (compound alone 1 µM) is 91.1%, 114% [2023-11] and 85.5% [2023-12].

`COC1C(OC(N)=O)C(O)C(Oc2ccc3c(O)c(NC(=O)c4ccc(O)c(CC=C(C)C)c4)c(=O)oc3c2C)OC1(C)C` (stereo unspecified): the viability, T/C by setting is: (compound alone 0.0316 µM) 103 (2×), 87, 35.1, 92.9, 81.4, 94.6, 95.1, 97.9, 96.7, 98.4, 98.1, 91.1%; (compound alone 0.1 µM) 95.3, 99.5, 33.2, 107, 103, 104 (2×), 92.5, 102, 98, 97.1, 87.8, 94.6%; (compound alone 0.316 µM) 103 (3×), 97.9, 35.9, 93.5, 106, 86.5, 101, 99.2, 96.5, 105, 93.4%; (compound alone 1 µM) 97.8, 102 (2×), 38.1, 95.8 (2×), 104 (2×), 93.7, 85.3, 87.4, 97, 95.1%; (compound alone 3.16 µM) 105, 93.4, 40.3, 108 (2×), 100, 97.2, 101 (3×), 104, 95.6, 115%; (compound alone 10 µM) 103 (2×), 101 (2×), 40, 91.4, 111, 102, 105, 98.1, 98.8, 96.7, 95.2%. Also, the IC50 (compound alone, run of 11/27/2023) was < 31.6 nM and > 10 µM.

On to `O=C(c1cc(Cc2n[nH]c(=O)c3ccccc23)ccc1F)N1CCN(C(=O)C2CC2)CC1`, for which the viability, T/C was 103%, 90% [2023-11] and 74.3% [2023-12] (compound alone 0.316 µM); 105%, 88.2% [2023-11] and 76% [2023-12] (compound alone 3.16 µM); 110%, 71.1% [2023-11] and 56.6% [2023-12] (compound alone 10 µM).

A word on the IC50: it is the concentration that gives 50% inhibition.

Source of the values: PubChem BioAssay AID1963844 (Molecular Pharmacology Branch, DTP, NCI, 2024).
